Screen size: about 310,000 compounds; about 14,000 (4.5%) showed an effect of 50% or more. The effect is printed as a negative number. The list shows a part of the results.
Biological target: human ether-à-go-go-related gene (hERG) potassium channel (human, UniProt Q12809)
Assay: primary screen, population patch clamp on CHO cells stably expressing hERG
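Note: peak tail current of the secondary pulse compared with the same well before compound.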

human ether-à-go-go-related gene (hERG) potassium channel, sequence (Q12809 whole entry, looked up): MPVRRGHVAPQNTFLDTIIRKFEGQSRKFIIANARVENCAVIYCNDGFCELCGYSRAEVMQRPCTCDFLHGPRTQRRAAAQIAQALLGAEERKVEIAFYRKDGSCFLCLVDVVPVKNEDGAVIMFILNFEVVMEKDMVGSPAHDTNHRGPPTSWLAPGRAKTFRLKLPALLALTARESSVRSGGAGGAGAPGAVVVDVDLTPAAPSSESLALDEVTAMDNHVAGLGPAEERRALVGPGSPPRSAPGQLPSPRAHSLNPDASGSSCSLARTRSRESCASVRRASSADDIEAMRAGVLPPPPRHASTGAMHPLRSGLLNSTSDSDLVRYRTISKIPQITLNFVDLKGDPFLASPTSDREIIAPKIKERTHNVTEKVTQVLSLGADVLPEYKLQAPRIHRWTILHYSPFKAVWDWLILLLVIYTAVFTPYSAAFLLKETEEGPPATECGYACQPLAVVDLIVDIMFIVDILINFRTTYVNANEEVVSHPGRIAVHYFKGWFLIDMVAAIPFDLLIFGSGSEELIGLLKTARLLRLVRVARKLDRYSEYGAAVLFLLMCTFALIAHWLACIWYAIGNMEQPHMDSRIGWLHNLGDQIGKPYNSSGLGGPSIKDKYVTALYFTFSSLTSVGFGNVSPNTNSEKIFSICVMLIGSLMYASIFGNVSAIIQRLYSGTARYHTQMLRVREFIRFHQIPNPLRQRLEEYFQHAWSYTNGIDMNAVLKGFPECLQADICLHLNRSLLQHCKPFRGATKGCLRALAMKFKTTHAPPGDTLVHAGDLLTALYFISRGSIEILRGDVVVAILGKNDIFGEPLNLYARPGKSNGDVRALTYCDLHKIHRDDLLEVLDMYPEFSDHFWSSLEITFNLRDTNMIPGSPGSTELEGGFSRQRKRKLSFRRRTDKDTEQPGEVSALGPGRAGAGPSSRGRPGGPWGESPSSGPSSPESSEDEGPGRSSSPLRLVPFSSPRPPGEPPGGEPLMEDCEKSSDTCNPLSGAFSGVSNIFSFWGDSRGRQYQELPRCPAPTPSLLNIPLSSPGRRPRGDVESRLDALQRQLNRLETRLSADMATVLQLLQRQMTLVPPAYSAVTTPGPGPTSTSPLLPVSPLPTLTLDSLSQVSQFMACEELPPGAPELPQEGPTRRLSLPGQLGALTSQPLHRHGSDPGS

Compound	hERG current change (%, negative = inhibition) at 10uM [%]
Cc1ccccc1NC(=O)CSc1ccc(-c2ccc(-n3cccn3)cc2)nn1	4.06
Cc1ccc(CN(CC(=O)NC(C)(C)C)C(=O)CNC(=O)c2cccs2)cc1	-6.51
CCCCOC(=O)c1ccc(NC(=O)c2c(N)n(C)c(=O)[nH]c2=O)cc1	14.7
Cc1cccc(C(=O)NC(=S)NC(C)c2ccccc2)c1 (centres unmarked)	13.9
O=C(COC(=O)c1ccc(O)cc1)NCC1COc2ccccc2O1 (centres unmarked)	-3.35
O=C(CN1CCOCC1)Nc1nc2ccc([N+](=O)[O-])cc2s1	-23
O=C(CN1CCOCC1)Nc1ccccc1Sc1ccccc1	-31.3
O=C(Nc1cccc(O)c1)c1cc(-c2cccs2)on1	1.95
O=C(Oc1oc(-c2ccco2)nc1C=Nc1ccccc1)c1ccco1	24.2
CC(C)(C)c1ccc(S(=O)(=O)NCc2ccccn2)cc1	-6
CCCn1c(=O)c2sccc2n2c(CCCC(=O)NC3CCN(Cc4ccccc4)CC3)nnc12	-10.9
O=C(CCc1nc2ccccc2s1)OCc1ccccc1F	5.65
Cc1cc(N(C)/N=C/c2ccccc2)nc(-c2ccccc2O)n1	19.5
Cc1nc(SCCc2ccccc2)[nH]c(=O)c1C	19.6
CCC(=O)Oc1ccc(C(=O)Nc2ccc3c(c2)C(=O)N(C2CCCCC2)C3=O)cc1	24
Cc1ccc(S(=O)(=O)NCc2ccncc2)cc1C(=O)NCC(C)C	-6.46
CCCOc1ccc(C(O)(CCC)CCN2CCCCC2)cc1 (centres unmarked)	-56.1
CCOC(=O)N1CCN(C(=O)c2cc3c(=O)n4cccc(C)c4nc3s2)CC1	-9.84
CCO[C@H]1OC(C(=O)N2CCN(Cc3ccccc3)CC2)=C[C@@H](C2CCCCC2)[C@@H]1CCCO	-5.5
O=c1cc2c(n[nH]1)-c1ccccc1CC2	14.3
Cn1c(=O)n(C)c2cc(/C=N/NC(=O)c3ccc(Cl)cc3)ccc21	6.84
CC1CCCN(C(=O)Cn2nnc(-c3cccnc3)n2)C1 (centres unmarked)	-1.24

Compound	hERG current change (%, negative = inhibition) at 10uM [%]
CCCN(Cc1nnc(-c2cccs2)o1)C(=O)CN1C(=O)NC2(CCC(C)CC2)C1=O (centres unmarked)	-49.1
CCOC(=O)N1CCN(c2cc(C)c(C(C)=O)cc2F)CC1	2.71
CC(=O)c1cccc(S(=O)(=O)NCCC(=O)O)c1	54
COc1ccc(NS(=O)(=O)c2ccc3oc(SCC(N)=O)nc3c2)cc1	12.8
CCOC(=O)C1(C)Oc2cccnc2NC1=O (centres unmarked)	22.6
CCOCCCNC(=O)C(NC(=O)c1ccc(NC(C)=O)cc1)c1ccccc1 (centres unmarked)	8.43
COc1cccc(CCNC(=O)CC2C(=O)NCCN2Cc2ccc(C)o2)c1 (centres unmarked)	15.7
NC(=O)CNC(=O)[C@@H]1CC2(CC(c3ccccc3)=NO2)CN1C(=O)c1ccc(Br)cc1 (some centres unmarked)	3.82
CCC(=O)N1CCN=C1SCc1ccc(Cl)cc1	-30.1
COc1ccc([C@H]2CC(=O)C=C(c3cccc(CO)c3)C2)cc1	-59.3
Nc1c(Cl)cc(C(=O)c2c3ccc(C(F)(F)F)cc3[n+]([O-])n2CCC[NH3+])cc1Cl.[Cl-]	-57.6
CCN1CC(CNC(=O)c2ccc3nc(Cc4cccc(Cl)c4)oc3c2)CC1=O (centres unmarked)	-19.9
O=C(NCC(=O)N(c1ccccc1F)C(C(=O)NCC1CCCO1)c1ccccc1)c1ccco1 (centres unmarked)	-2.56
COc1ccc(-n2ncc3c2CC(C)(C)CC3NC(=O)CCn2cncn2)cc1 (centres unmarked)	-42.2
CN(CCC#N)C(=O)COC(=O)C1c2ccccc2Oc2ccccc21	-8.84
Cc1cc(C(=O)CSc2nnc(-c3ccc4c(c3)OCO4)o2)c(C)n1-c1ccc(F)cc1	-6.24
CCOC(=O)C1CCN(C(=O)c2ccc(CNS(=O)(=O)c3ccc(OC)cc3)cc2)CC1	-24.6
CCNc1c(NC(=O)C2CCC(C)CC2)c(=O)oc2ccccc12 (centres unmarked)	6.69
CN(C)CCCNC(=O)/C(=C\c1ccc(-c2cccc([N+](=O)[O-])c2)o1)NC(=O)c1ccccc1	-81.2
O=C(Nc1ccccc1N1CCCC1)C1CCN(S(=O)(=O)c2cccc(C(F)(F)F)c2)CC1	-16.8
CC(=O)Nc1ccc(NC(=O)CSc2ccc(C(F)(F)F)cc2[N+](=O)[O-])cc1	10.8
CCOc1ccc(NC(=O)CC2NCCNC2=O)cc1 (centres unmarked)	2.47

Compound	hERG current change (%, negative = inhibition) at 10uM [%]
COc1ccccc1N(CC(=O)N1CCOCC1)S(C)(=O)=O	10.7
CN1CCN(C(=O)NCC23CC4CC(CC(C4)C2)C3)CC1	4.58
CCOc1ccc(NC(=O)CS(=O)CC(=O)Nc2cccnc2)cc1 (centres unmarked)	21.3
Cc1cccc(/C(N)=N/OC(=O)c2ccc(Cl)cc2Cl)c1	8.46
Cc1ccc(OCC(=O)NCCCNC(=O)c2ccco2)cc1	0.583
O=C(N/N=C/c1ccccc1F)c1ccccc1OCc1ccccc1	9.98
Cc1ccc(/C=C2\Sc3ccccc3C2=O)s1	3.38
Cc1nn2c(C)c(C(=O)Nc3ccccc3)cnc2c1-c1ccccc1	0.0991
C/C(=N\Nc1ccccn1)c1ccc(Br)s1	-7.5
C#CCOCCOCCOCCNc1nc(N2CCN(C(=O)C(Cc3cc4ccccc4[nH]3)n3cc(C(N)C(C)CC)nn3)CC2)nc(N2CCN(C(=O)C(Cc3cc4ccccc4[nH]3)n3cc(C(N)C(C)CC)nn3)CC2)n1.Cl (centres unmarked)	5.26
Cc1ccc(CN(C)C(=O)c2ccc3c(c2)NC(=O)CS3)o1	-17.2
O=C1C2C3C=CC(CC3)C2C(=O)N1/N=C/c1c(O)ccc2ccccc12 (centres unmarked)	0.488
Cc1cc2c3c([nH]c2cc1S(=O)(=O)NCCCOC(C)C)CC(C)(C)CC3=O	-10.6
CS(=O)(=O)N(CC(=O)N1CCN(c2ccccc2F)CC1)c1cccc(C(F)(F)F)c1	-36.4
COc1cccc(C2C(C#N)=C(N)Oc3c2oc(CO)cc3=O)c1OC (centres unmarked)	0.613
Nc1ccc(NC(=O)NC2CCCCC2)cc1[N+](=O)[O-]	15.9
N#CC(C#N)=C1NC(N)=C(C#N)C(c2ccccc2)=C1C#N	11.5
CCSCCOC(=O)C1=C(C)NC(=O)NC1c1cccc(OC)c1OC (centres unmarked)	-0.0744
COc1cccc(/C=C/c2nc(S(=O)(=O)c3ccccc3)c(N(C)C)o2)c1	-34.7
COc1ccc(-c2[nH]c(-c3ccc(SC)cc3)nc2SCC(=O)Nc2nccs2)cc1	1.84
O=C(NCCCCCc1nc2ccccc2[nH]1)c1ccccc1Cl	-6.43
CCOc1ncccc1C(=O)OCc1c(Cl)cccc1Cl	4.68

Compound	hERG current change (%, negative = inhibition) at 10uM [%]
Cc1nc(NC(=O)COC(=O)c2ccc(S(=O)(=O)N3CCc4ccccc4C3)cc2)c(Cl)cc1Cl	2.58
COc1ccc(Cl)cc1Nc1nnc(-c2ccncc2)s1	12.3
O=C(COC(=O)Cc1ccsc1)NCC12CC3CC(CC(C3)C1)C2	7.99
COC(=O)C(O)(c1c(C)[nH]c2ccccc12)C(F)(F)F (centres unmarked)	5.86
C=CCNC(=O)/C(C#N)=C/c1ccc(C)o1	30.9
CCOC(=O)N1CCN(C(=O)c2cc3sccc3n2C)CC1	-8.4
COC(=O)CN1C(=O)C(O)=C(C(C)=O)C1c1ccc([N+](=O)[O-])cc1 (centres unmarked)	1.33
Cc1c(C(=O)NCCC2=CCCCC2)oc2ccc(S(=O)(=O)N3CCC4(CC3)OCCO4)cc12	0.446
CC(C)(C)c1ccc(C(=O)N2CCC(C(=O)N3CCCCC3)CC2)cc1	-3.01
Cc1cc(N2C(=O)C(O)=C(C(=O)c3cc4ccccc4o3)C2c2cccc(Br)c2)no1 (centres unmarked)	11.7
COc1ccc(NS(=O)(=O)c2ccc(S(=O)(=O)N3CCCC3)cc2)cc1Cl	-28.7
CCCCN(C(=O)CCC(=O)Nc1cc(C)on1)C(C(=O)NC1CCCC1)c1ccc(F)cc1 (centres unmarked)	4.03
Nc1c(-c2cccc([N+](=O)[O-])c2)nc2ccccn12	-18.5
CN1c2ccsc2C(O)=C(C(=S)Nc2ccccc2)S1(=O)=O	10.8
O=S(=O)(Nc1cccc(C(F)(F)F)c1)c1cccnc1	5.14
CNC(=O)N(O)C1N(/N=C/c2ccccc2O)C(=S)SC1(C)C (centres unmarked)	5.49
O=[N+]([O-])c1cccc(-c2ccc(SCc3ccccn3)nn2)c1	-6.25
CN1CCN(C(N)=NC(=O)c2ccccc2)CC1	6.76
CCOc1cccc(C(=O)N/N=C/c2ccoc2)c1	12.2
O=c1[nH]c(CN2CCN(c3ccccc3O)CC2)nc2ccccc12	-9.33

Source: paper PMC4336329 (PLoS ONE, 2015)
